# The full ranking holds about 81,000 sequences; the median of “one-hybrid fitness for binding NBS DNA” is about -0.1, and the highest 2% start at about 0.36. This is one part of the list.
# B1: Caulobacter ParB omega fusion; a variant is named by its letters at X, in order, B8GW30 (parent)
# chain: MESVVVGEPGMSEGRRGLGRGLSALLGEVDAAPAQAPGEQLGGSREAPIEILQRNPDQPRRTFREEDLEDLSNSIREKGVLQPILVRPSPDTAGEYQIVAGERAWRAAQRAGLKTVPIMVRELDDLAVLEIGIIENVQRADLNVLEEALSYKVLMEKFERTQENIAQTIGKSXSHVANXMRLLXLPDEVQSYLVSGELTAXHARAIAAAADPVALAKQIIEGGLSVRETEALARKAPNLSAGKSKGGRPPRVKDTDTQALESDLSSVLGLDVSIDHRGSTGTLTITYATLEQLDDLCNRLTRGI
# Variants of: B1
# Experiment: one-hybrid fitness for binding NBS DNA (the Noc-binding site; scaled: cognate 1, non-cognate 0); higher = stronger binding
# Conditions: with NBS DNA site
# Procedure, shortened: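 On M9-minus-histidine containing 0.1 mM IPTG and 5 mM 3-AT, E. coli USO cells with a HIS3 reporter, site 19 bp from the promoter, grew 48 hours at 37°C to select Caulobacter ParB libraries randomised at four specificity codons. Plasmids from before and after were Illumina-sequenced, with three replicate libraries pooled and variants under 10 reads left out. Fitness is the log change in variant-to-wild-type read ratio, rescaled against cognate and non-cognate.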
row,Variant,one-hybrid fitness for binding NBS DNA
1,YRTT,≤ 0.2
2,RHYV,≤ 0.2
3,TWKG,≤ 0.2
4,VIMR,≤ 0.2
5,SKQL,≤ 0.2
6,SSCA,≤ 0.2
7,NRGL,≤ 0.2
8,FHHG,≤ 0.2
9,IINM,≤ 0.2
10,LSLM,≤ 0.2
11,TLFG,≤ 0.2
12,NHLV,≤ 0.2
13,PFES,≤ 0.2
14,GVIG,≤ 0.2
15,RGSL,≤ 0.2
16,AMMS,≤ 0.2
17,CVGS,≤ 0.2
18,VQPA,≤ 0.2
19,YLFS,≤ 0.2
20,DLIL,≤ 0.2
21,YMAV,≤ 0.2

row,Variant,one-hybrid fitness for binding NBS DNA
1,NCID,≤ 0.2
2,VFLD,≤ 0.2
3,NSTM,≤ 0.2
4,PVQT,≤ 0.2
5,ENDC,≤ 0.2
6,HSPR,≤ 0.2
7,WPFI,≤ 0.2
8,NAIF,≤ 0.2
9,QPSH,≤ 0.2
10,WSRT,≤ 0.2
11,EGNG,≤ 0.2
12,SFPW,≤ 0.2
13,SENG,≤ 0.2
14,YIYS,≤ 0.2
15,AFVQ,≤ 0.2
16,CQKM,≤ 0.2
17,HDMV,≤ 0.2
18,CCSC,≤ 0.2
19,NSSI,≤ 0.2
20,QKAN,≤ 0.2
21,RTHG,≤ 0.2

row,Variant,one-hybrid fitness for binding NBS DNA
1,QHLL,≤ 0.2
2,DTKS,≤ 0.2
3,AYMA,≤ 0.2
4,HIPH,≤ 0.2
5,DVMC,≤ 0.2
6,ALPN,≤ 0.2
7,SRWI,≤ 0.2
8,WHCC,≤ 0.2
9,QIFK,≤ 0.2
10,DKVI,≤ 0.2
11,YDAG,≤ 0.2
12,VHDG,≤ 0.2
13,NLPI,≤ 0.2
14,NWTS,≤ 0.2
15,SPEF,≤ 0.2
16,WCKL,≤ 0.2
17,TFRG,≤ 0.2
18,SWRF,≤ 0.2
19,PHRM,≤ 0.2
20,QLRA,0.479
21,LDSC,≤ 0.2

row,Variant,one-hybrid fitness for binding NBS DNA
1,HLCT,≤ 0.2
2,TQRW,≤ 0.2
3,PNPF,≤ 0.2
4,MGDT,≤ 0.2
5,FGKN,≤ 0.2
6,VSNF,≤ 0.2
7,WHKG,≤ 0.2
8,TCGC,≤ 0.2
9,NSNC,≤ 0.2
10,THMA,≤ 0.2
11,TPLG,≤ 0.2
12,PIVL,≤ 0.2
13,WGST,≤ 0.2
14,VTTN,≤ 0.2
15,LSHV,≤ 0.2
16,YDGR,≤ 0.2
17,LPCE,≤ 0.2
18,QGET,≤ 0.2
19,ITKC,≤ 0.2
20,DVYR,≤ 0.2
21,RQYD,≤ 0.2

# — a collection of fitness landscapes (doi:10.1016/j.celrep.2020.107928)
